Assay results: the supplement of paper PMC8728848
Some of the results follow.

Columns and labels:
Assay in all cases: glycan array binding signal (z-score within array); higher = stronger binding
Settings in all cases: glycan notation: IUPAC condensed, linker removed
[1] = molecular target: Fuc(a1-3)GlcNAc
In short: (§1)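 Negative Z-scores can be read as non-binding. The Z-score is calculated within each array and then averaged across arrays of one protein sequence at different concentrations or buffers and across linkers. Arrays, 3228 in all, were curated from the Consortium for Functional Glycomics database and kept only where the protein sequence was available.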

[2] = molecular target: Fuc(a1-3)[Gal(b1-4)]Glc6S
In short: as §1

[3] = molecular target: Fuc(a1-3)[Gal(b1-4)]GlcNAc
In short: as §1

[4] = molecular target: Fuc(a1-3)[Gal(b1-4)]GlcNAc(b1-2)Man
In short: as §1

[5] = molecular target: Fuc(a1-3)[Gal(b1-4)]GlcNAc(b1-2)Man(a1-3)[Fuc(a1-3)[Gal(b1-4)]GlcNAc(b1-2)Man(a1-6)]Man(b1-4)GlcNAc(b1-4)GlcNAc
In short: as §1

[6] = molecular target: Fuc(a1-3)[Gal(b1-4)]GlcNAc(b1-2)Man(a1-3)[Fuc(a1-3)[Gal(b1-4)]GlcNAc(b1-2)Man(a1-6)]Man(b1-4)GlcNAc(b1-4)[Fuc(a1-6)]GlcNAc
In short: as §1

[7] = molecular target: Fuc(a1-3)[Gal(b1-4)]GlcNAc(b1-3)Gal(b1-3)[Fuc(a1-4)]GlcNAc
In short: as §1

[8] = molecular target: Fuc(a1-3)[Gal(b1-4)]GlcNAc(b1-3)Gal(b1-4)[Fuc(a1-3)]GlcNAc
In short: as §1

[9] = molecular target: Fuc(a1-3)[Gal(b1-4)]GlcNAc(b1-3)Gal(b1-4)[Fuc(a1-3)]GlcNAc(b1-3)Gal(b1-4)[Fuc(a1-3)]GlcNAc
In short: as §1

[10] = molecular target: Fuc(a1-3)[Gal(b1-4)]GlcNAc(b1-3)GalNAc
In short: as §1

[11] = molecular target: Fuc(a1-3)[Gal(b1-4)]GlcNAc(b1-6)GalNAc
In short: as §1

[12] = molecular target: Fuc(a1-3)[Gal(b1-4)]GlcNAc(b1-6)[Gal(b1-3)GlcNAc(b1-3)]Gal(b1-4)Glc
In short: as §1

[13] = molecular target: Fuc(a1-3)[Gal(b1-4)]GlcNAc6S
In short: as §1

[14] = molecular target: Fuc(a1-3)[Gal3S(b1-4)]Glc
In short: as §1

[15] = molecular target: Fuc(a1-3)[Gal3S(b1-4)]GlcNAc
In short: as §1

[16] = molecular target: Fuc(a1-3)[Gal3S(b1-4)]GlcNAc6S
In short: as §1

[17] = molecular target: Fuc(a1-3)[GalNAc(b1-4)]GlcNAc
In short: as §1

[18] = molecular target: Fuc(a1-3)[GalNAc(b1-4)]GlcNAc6S
In short: as §1

[19] = molecular target: Fuc(a1-4)GlcNAc
In short: as §1

[20] = molecular target: Fuc(b1-3)GlcNAc
In short: as §1

[21] = molecular target: Gal(a1-2)Gal
In short: as §1

[22] = molecular target: Gal(a1-3)Gal
In short: as §1

[23] = molecular target: Gal(a1-3)Gal(b1-3)GlcNAc
In short: as §1

[24] = molecular target: Gal(a1-3)Gal(b1-3)GlcNAc(b1-2)Man
In short: as §1

[25] = molecular target: Gal(a1-3)Gal(b1-3)GlcNAc(b1-2)Man(a1-3)[Gal(a1-3)Gal(b1-3)GlcNAc(b1-2)Man(a1-6)]Man(b1-4)GlcNAc(b1-4)GlcNAc
In short: as §1

[26] = molecular target: Gal(a1-3)Gal(b1-3)GlcNAc(b1-3)GalNAc
In short: as §1

[27] = molecular target: Gal(a1-3)Gal(b1-3)GlcNAc(b1-6)GalNAc
In short: as §1

[28] = molecular target: Gal(a1-3)Gal(b1-3)[Fuc(a1-4)]GlcNAc(b1-2)Man(a1-3)[Gal(a1-3)Gal(b1-3)[Fuc(a1-4)]GlcNAc(b1-2)Man(a1-6)]Man(b1-4)GlcNAc(b1-4)GlcNAc
In short: as §1

[29] = molecular target: Gal(a1-3)Gal(b1-4)Glc
In short: as §1

[30] = molecular target: Gal(a1-3)Gal(b1-4)GlcNAc
In short: as §1

[31] = molecular target: Gal(a1-3)Gal(b1-4)GlcNAc(b1-2)Man
In short: as §1

[32] = molecular target: Gal(a1-3)Gal(b1-4)GlcNAc(b1-2)Man(a1-3)[Gal(a1-3)Gal(b1-4)GlcNAc(b1-2)Man(a1-6)]Man(b1-4)GlcNAc(b1-4)GlcNAc
In short: as §1

[33] = molecular target: Gal(a1-3)Gal(b1-4)GlcNAc(b1-3)GalNAc
In short: as §1

[34] = molecular target: Gal(a1-3)Gal(b1-4)GlcNAc(b1-6)GalNAc
In short: as §1

[35] = molecular target: Gal(a1-3)Gal(b1-4)[Fuc(a1-3)]GlcNAc
In short: as §1

[36] = molecular target: Gal(a1-3)Gal(b1-4)[Fuc(a1-3)]GlcNAc(b1-2)Man(a1-3)[Gal(a1-3)Gal(b1-4)[Fuc(a1-3)]GlcNAc(b1-2)Man(a1-6)]Man(b1-4)GlcNAc(b1-4)GlcNAc
In short: as §1

[37] = molecular target: Gal(a1-3)GalNAc
In short: as §1

B1: SP15308A-bot-339-19-339 (Bacteroides ovatus) (protein)
chain: ACNNEWEDEQYEQYISFKSPIPAGGEGVTDIYVRYKEDGKVTYRLPIVVSGSTTNTLDREVHIAVDKDTLETLNIERFSIHRPGLWYTALEEDKYDFPKTVHISAGSSVEQLNIDFNLQGIDMLEKWVLPLTIVDDPSYNYKSHPRKNYAKALLRVIPFNNYSGSYTSSAMKVYTYINGKPDTNARTANKRTGYVINDNTVFFYAGLISEDLDKEVREKYKINVHFNEDGTLHMEQGDPTNKMKFELIGTPTYSKTSVMDATRPYLERRYVQIMFEYDFEDFSYGGNGVDVIPIKYKVEGSMTLQRNINTQIPDEDQQIEW
What does the source list for B1?
glycan array binding signal (z-score) [1]: -0.063; glycan array binding signal (z-score) [2]: -0.088; glycan array binding signal (z-score) [3]: -0.428; glycan array binding signal (z-score) [4]: 0.187; glycan array binding signal (z-score) [5]: -0.26; glycan array binding signal (z-score) [6]: -0.098; glycan array binding signal (z-score) [7]: -0.084; glycan array binding signal (z-score) [8]: -0.237; glycan array binding signal (z-score) [9]: 0; glycan array binding signal (z-score) [10]: -0.329; glycan array binding signal (z-score) [11]: -0.05; glycan array binding signal (z-score) [12]: -0.388; glycan array binding signal (z-score) [13]: 0.096; glycan array binding signal (z-score) [14]: -0.714; glycan array binding signal (z-score) [15]: 0.719; glycan array binding signal (z-score) [16]: -0.193; glycan array binding signal (z-score) [17]: 0.14; glycan array binding signal (z-score) [18]: -0.483; glycan array binding signal (z-score) [19]: 19.1; glycan array binding signal (z-score) [20]: 0.447; glycan array binding signal (z-score) [21]: -0.091; glycan array binding signal (z-score) [22]: 0.236; glycan array binding signal (z-score) [23]: 0.959; glycan array binding signal (z-score) [24]: -0.138; glycan array binding signal (z-score) [25]: 0.299; glycan array binding signal (z-score) [26]: -0.457; glycan array binding signal (z-score) [27]: -0.101; glycan array binding signal (z-score) [28]: 0.394; glycan array binding signal (z-score) [29]: -0.381; glycan array binding signal (z-score) [30]: 0.23; glycan array binding signal (z-score) [31]: -0.414; glycan array binding signal (z-score) [32]: 0.709; glycan array binding signal (z-score) [33]: -0.732; glycan array binding signal (z-score) [34]: 0.055; glycan array binding signal (z-score) [35]: -0.425; glycan array binding signal (z-score) [36]: -0.56; glycan array binding signal (z-score) [37]: -0.214
